# Results reported in patent US20260217856A1 (MIE UNIVERSITY, published 2026).
# B1: CD19-28z-m11 (other)
# chain: DIQMTQTTSSLSASLGDRVTISCRASQDISKYLNWYQQKPDGTVKLLIYHTSRLHSGVPSRFSGRGRGTRYSLTISNLEQEDIATYFCQQGNTLPYTFGGGTKLEITGGGGSGGGGSGGGGSEVKLQESGPGLVAPSQSLSVTCTVSGVSLPDYGVSWIRQPPRKGLEWLGVIWGSETTYYNSALKSRLTIIKDNSKSQVFLKMNSLQTDDTAIYYCAKHYYYGGSYAMDYWGQGTSVTVSSIEVMYPPPYLDNEKSNGTIIHVKGKHLCPSPLFPGPSKPFWVLVVVGGVLACYSLLVTVAFIIFWVRSKRSRLLHSDYMNMTPRRPGPTRKHYQPYAPPRDFAAYRSL[about 120 residues left out here]
# B2: MAGE-A4-zG-m5 (other)
# chain: QVQLQVQLVQSGAEVKKPGSSVKVSCKASGGTFSSYAISWVRQAPGQGLEWMGGIIPIFGTANYAQKFQGRVTITADKSTSTAYMELSSLRSEDTAVYYCARSPRRAYHDAFDIWGQGTMVTVSSGGGGSGGGGSGGGGSSYELTQPPSMSVAPGKTASITCGGDHIGSKSVHWYQQKPGQAPVLVVYDDSDRPSGIPERFRGRNSGNTARLTISGTQAMDEADYYCLAWDSSTAIFGGGTQLTVLVGQPKANPTVTLFPPSSEELQANKATLVCLISDFYPGAVTVAWKADGSPVKAGVETTKPSKQSNNKYAASSYLSLTPEQWKSHRSYSCQVTHEGSTVEKTVAPTECSARQTRFWVLVVVGGVLACYSLLVTVAFIIFWVRL[about 120 residues left out here]RSQCMWPRETQLLLEVPPSTEDARSCQFPEEERGERSAEEKGRLGDLWV
# B3: MAGE-A4-zG-m10 (other)
# chain: QVQLQVQLVQSGAEVKKPGSSVKVSCKASGGTFSSYAISWVRQAPGQGLEWMGGIIPIFGTANYAQKFQGRVTITADKSTSTAYMELSSLRSEDTAVYYCARSPRRAYHDAFDIWGQGTMVTVSSGGGGSGGGGSGGGGSSYELTQPPSMSVAPGKTASITCGGDHIGSKSVHWYQQKPGQAPVLVVYDDSDRPSGIPERFSGSNRGNRARLTISGTQAMDEADYYCLAWDSSTAIFGGGTQLTVLVGQPKANPTVTLFPPSSEELQANKATLVCLISDFYPGAVTVAWKADGSPVKAGVETTKPSKQSNNKYAASSYLSLTPEQWKSHRSYSCQVTHEGSTVEKTVAPTECSARQTRFWVLVVVGGVLACYSLLVTVAFIIFWVRL[about 120 residues left out here]RSQCMWPRETQLLLEVPPSTEDARSCQFPEEERGERSAEEKGRLGDLWV
# B4: MAGE-A4-zG-Km6 (other)
# chain: QVQLQVQLVQSGAEVKKPGSSVKVSCKASGGTFSSYAISWVRQAPGQGLEWMGGIIPIFGTANYAQKFQGRVTITADKSTSTAYMELSSLRSEDTAVYYCARSPRRAYHDAFDIWGQGTMVTVSSGGGGSGGGGSGGGGSSYELTQPPSMSVAPGKTASITCGGDHIGSKSVHWYQQKPGQAPVLVVYDDSDRPSGIPERFKGSNKGNKATLTISGTQAMDEADYYCLAWDSSTAIFGGGTQLTVLVGQPKANPTVTLFPPSSEELQANKATLVCLISDFYPGAVTVAWKADGSPVKAGVETTKPSKQSNNKYAASSYLSLTPEQWKSHRSYSCQVTHEGSTVEKTVAPTECSARQTRFWVLVVVGGVLACYSLLVTVAFIIFWVRL[about 120 residues left out here]RSQCMWPRETQLLLEVPPSTEDARSCQFPEEERGERSAEEKGRLGDLWV
# B5: MAGE-A4-zG-m9 (other)
# chain: QVQLQVQLVQSGAEVKKPGSSVKVSCKASGGTFSSYAISWVRQAPGQGLEWMGGIIPIFGTANYAQKFQGRVTITADKSTSTAYMELSSLRSEDTAVYYCARSPRRAYHDAFDIWGQGTMVTVSSGGGGSGGGGSGGGGSSYELTQPPSMSVAPGKTASITCGGDHIGSKSVHWYQQKPGQAPVLVVYDDSDRPSGIPERFSGRNSGNRARLTISGTQAMDEADYYCLAWDSSTAIFGGGTQLTVLVGQPKANPTVTLFPPSSEELQANKATLVCLISDFYPGAVTVAWKADGSPVKAGVETTKPSKQSNNKYAASSYLSLTPEQWKSHRSYSCQVTHEGSTVEKTVAPTECSARQTRFWVLVVVGGVLACYSLLVTVAFIIFWVRL[about 120 residues left out here]RSQCMWPRETQLLLEVPPSTEDARSCQFPEEERGERSAEEKGRLGDLWV
# B6: MAGE-A4-zG-m7 (other)
# chain: QVQLQVQLVQSGAEVKKPGSSVKVSCKASGGTFSSYAISWVRQAPGQGLEWMGGIIPIFGTANYAQKFQGRVTITADKSTSTAYMELSSLRSEDTAVYYCARSPRRAYHDAFDIWGQGTMVTVSSGGGGSGGGGSGGGGSSYELTQPPSMSVAPGKTASITCGGDHIGSKSVHWYQQKPGQAPVLVVYDDSDRPSGIPERFRGSNSGNRARLTISGTQAMDEADYYCLAWDSSTAIFGGGTQLTVLVGQPKANPTVTLFPPSSEELQANKATLVCLISDFYPGAVTVAWKADGSPVKAGVETTKPSKQSNNKYAASSYLSLTPEQWKSHRSYSCQVTHEGSTVEKTVAPTECSARQTRFWVLVVVGGVLACYSLLVTVAFIIFWVRL[about 120 residues left out here]RSQCMWPRETQLLLEVPPSTEDARSCQFPEEERGERSAEEKGRLGDLWV
# B7: MAGE-A4-zG-Km8 (other)
# chain: QVQLQVQLVQSGAEVKKPGSSVKVSCKASGGTFSSYAISWVRQAPGQGLEWMGGIIPIFGTANYAQKFQGRVTITADKSTSTAYMELSSLRSEDTAVYYCARSPRRAYHDAFDIWGQGTMVTVSSGGGGSGGGGSGGGGSSYELTQPPSMSVAPGKTASITCGGDHIGSKSVHWYQQKPGQAPVLVVYDDSDRPSGIPERFSGKNKGNKATLTISGTQAMDEADYYCLAWDSSTAIFGGGTQLTVLVGQPKANPTVTLFPPSSEELQANKATLVCLISDFYPGAVTVAWKADGSPVKAGVETTKPSKQSNNKYAASSYLSLTPEQWKSHRSYSCQVTHEGSTVEKTVAPTECSARQTRFWVLVVVGGVLACYSLLVTVAFIIFWVRL[about 120 residues left out here]RSQCMWPRETQLLLEVPPSTEDARSCQFPEEERGERSAEEKGRLGDLWV
# B8: CD19-28z-m2 (other)
# chain: DIQMTQTTSSLSASLGDRVTISCRASQDISKYLNWYQQKPDGTVKLLIYHTSRLHSGVPSRFRGRGRGTDYRLTISNLEQEDIATYFCQQGNTLPYTFGGGTKLEITGGGGSGGGGSGGGGSEVKLQESGPGLVAPSQSLSVTCTVSGVSLPDYGVSWIRQPPRKGLEWLGVIWGSETTYYNSALKSRLTIIKDNSKSQVFLKMNSLQTDDTAIYYCAKHYYYGGSYAMDYWGQGTSVTVSSIEVMYPPPYLDNEKSNGTIIHVKGKHLCPSPLFPGPSKPFWVLVVVGGVLACYSLLVTVAFIIFWVRSKRSRLLHSDYMNMTPRRPGPTRKHYQPYAPPRDFAAYRSL[about 120 residues left out here]
# B9: CD19-28z-m20 (other)
# chain: DIQMTQTTSSLSASLGDRVTISCRASQDISKYLNWYQQKPDGTVKLLIYHTSRLHSGVPSRFSGSGSGTDYSLTISRLRQRDIATYFCQQGNTLPYTFGGGTKLEITGGGGSGGGGSGGGGSEVKLQESGPGLVAPSQSLSVTCTVSGVSLPDYGVSWIRQPPRKGLEWLGVIWGSETTYYNSALKSRLTIIKDNSKSQVFLKMNSLQTDDTAIYYCAKHYYYGGSYAMDYWGQGTSVTVSSIEVMYPPPYLDNEKSNGTIIHVKGKHLCPSPLFPGPSKPFWVLVVVGGVLACYSLLVTVAFIIFWVRSKRSRLLHSDYMNMTPRRPGPTRKHYQPYAPPRDFAAYRSL[about 120 residues left out here]
# B10: CD19-28z-m18 (other)
# chain: DIQMTQTTSSLSASLGDRVTISCRASQDISKYLNWYQQKPDGTVKLLIYHTSRLHSGVPRRFRGSGSGTDYSLTIRNLEQEDIATYFCQQGNTLPYTFGGGTKLEITGGGGSGGGGSGGGGSEVKLQESGPGLVAPSQSLSVTCTVSGVSLPDYGVSWIRQPPRKGLEWLGVIWGSETTYYNSALKSRLTIIKDNSKSQVFLKMNSLQTDDTAIYYCAKHYYYGGSYAMDYWGQGTSVTVSSIEVMYPPPYLDNEKSNGTIIHVKGKHLCPSPLFPGPSKPFWVLVVVGGVLACYSLLVTVAFIIFWVRSKRSRLLHSDYMNMTPRRPGPTRKHYQPYAPPRDFAAYRSL[about 120 residues left out here]
# B11: CD19-28z-m17 (other)
# chain: DIQMTQTTSSLSASLGDRVTISCRASQDISKYLNWYQQKPDGTVKLLIYHTSRLHSGVPSRFSGSGSGTRYRLRISNLEQEDIATYFCQQGNTLPYTFGGGTKLEITGGGGSGGGGSGGGGSEVKLQESGPGLVAPSQSLSVTCTVSGVSLPDYGVSWIRQPPRKGLEWLGVIWGSETTYYNSALKSRLTIIKDNSKSQVFLKMNSLQTDDTAIYYCAKHYYYGGSYAMDYWGQGTSVTVSSIEVMYPPPYLDNEKSNGTIIHVKGKHLCPSPLFPGPSKPFWVLVVVGGVLACYSLLVTVAFIIFWVRSKRSRLLHSDYMNMTPRRPGPTRKHYQPYAPPRDFAAYRSL[about 120 residues left out here]
# B12: CD19-28z-m19 (other)
# chain: DIQMTQTTSSLSASLGDRVTISCRASQDISKYLNWYQQKPDGTVKLLIYHTSRLHSGVPRRFSGSGSGTDYSLRIRNLEQEDIATYFCQQGNTLPYTFGGGTKLEITGGGGSGGGGSGGGGSEVKLQESGPGLVAPSQSLSVTCTVSGVSLPDYGVSWIRQPPRKGLEWLGVIWGSETTYYNSALKSRLTIIKDNSKSQVFLKMNSLQTDDTAIYYCAKHYYYGGSYAMDYWGQGTSVTVSSIEVMYPPPYLDNEKSNGTIIHVKGKHLCPSPLFPGPSKPFWVLVVVGGVLACYSLLVTVAFIIFWVRSKRSRLLHSDYMNMTPRRPGPTRKHYQPYAPPRDFAAYRSL[about 120 residues left out here]
# Target: T1, CD19 (human, UniProt P15391 20-556)
# T1 sequence (looked up): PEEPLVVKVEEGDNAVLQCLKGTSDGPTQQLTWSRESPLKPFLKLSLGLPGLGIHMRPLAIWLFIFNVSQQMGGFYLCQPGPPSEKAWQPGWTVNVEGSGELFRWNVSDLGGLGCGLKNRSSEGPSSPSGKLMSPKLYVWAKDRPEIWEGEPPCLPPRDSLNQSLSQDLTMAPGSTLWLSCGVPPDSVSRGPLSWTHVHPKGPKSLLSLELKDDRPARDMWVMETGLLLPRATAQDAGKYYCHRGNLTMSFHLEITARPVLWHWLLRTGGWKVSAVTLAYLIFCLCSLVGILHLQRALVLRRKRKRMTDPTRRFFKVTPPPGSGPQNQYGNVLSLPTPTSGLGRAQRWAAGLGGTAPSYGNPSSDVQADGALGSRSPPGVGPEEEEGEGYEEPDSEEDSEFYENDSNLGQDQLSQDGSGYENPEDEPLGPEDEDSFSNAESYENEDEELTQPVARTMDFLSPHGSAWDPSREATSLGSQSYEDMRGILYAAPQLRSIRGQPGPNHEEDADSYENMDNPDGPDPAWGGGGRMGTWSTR
# Assay: cell-based or functional assay
"IFNγ production, co-culture with Nalm-6",Binder,"cytotoxic activity, effector:target 1:1, Nalm-6 target cells","cytotoxic activity, effector:target 2:1, Nalm-6 target cells"
0.17 ratio to WT CAR-T (1.00),B1,1.06 ratio to WT CAR-T (1.00),1.4 ratio to WT CAR-T (1.00)

# Target: complex of a MAGE-A4 derived peptide and HLA-A2 (human)
# Assay: cell-based or functional assay
"IFNγ production, co-culture with SK-MEL-37",Binder,"cytotoxic activity, effector:target 1:1, SK-MEL-37 target cells","cytotoxic activity, effector:target 3:1, SK-MEL-37 target cells"
0.43 ratio to WT CAR-T (1.00),B2,1.05 ratio to WT CAR-T (1.00),1.62 ratio to WT CAR-T (1.00)
0.32 ratio to WT CAR-T (1.00),B3,0.99 ratio to WT CAR-T (1.00),1.77 ratio to WT CAR-T (1.00)
0.93 ratio to WT CAR-T (1.00),B4,1.61 ratio to WT CAR-T (1.00),1.52 ratio to WT CAR-T (1.00)
0.29 ratio to WT CAR-T (1.00),B5,1.23 ratio to WT CAR-T (1.00),1.61 ratio to WT CAR-T (1.00)
0.22 ratio to WT CAR-T (1.00),B6,0.99 ratio to WT CAR-T (1.00),1.77 ratio to WT CAR-T (1.00)
0.91 ratio to WT CAR-T (1.00),B7,1.36 ratio to WT CAR-T (1.00),1.47 ratio to WT CAR-T (1.00)

# Target: T1, CD19
# Assay: cell-based or functional assay
# Remark: another data set of the same source
"IFNγ production, co-culture with Nalm-6",Binder,"cytotoxic activity, effector:target 1:1, Nalm-6 target cells","cytotoxic activity, effector:target 3:1, Nalm-6 target cells"
0.24 ratio to WT CAR-T (1.00),B8,1.19 ratio to WT CAR-T (1.00),0.9 ratio to WT CAR-T (1.00)

# Target: T1, CD19
# Assay: cell-based or functional assay
# Remark: another data set of the same source
"IFNγ production, co-culture with Nalm-6",Binder,"cytotoxic activity, effector:target 1:1, Nalm-6 target cells","cytotoxic activity, effector:target 3:1, Nalm-6 target cells"
0.39 ratio to WT CAR-T (1.00),B9,1.9 ratio to WT CAR-T (1.00),1.57 ratio to WT CAR-T (1.00)
0.28 ratio to WT CAR-T (1.00),B10,1.42 ratio to WT CAR-T (1.00),1.27 ratio to WT CAR-T (1.00)
0.34 ratio to WT CAR-T (1.00),B11,2.43 ratio to WT CAR-T (1.00),1.43 ratio to WT CAR-T (1.00)
0.68 ratio to WT CAR-T (1.00),B12,1.76 ratio to WT CAR-T (1.00),1.38 ratio to WT CAR-T (1.00)
